# Test results published in the supplement of paper PMC11417369.
# ± gives the standard deviation of the averaged measurements. This is one part of the list.
# Tested on: PfAP2-LT AP2 domain (GST-tagged)
# Assay: gcPBM binding intensity (ln(normalized median fluorescence intensity)); higher = stronger DNA binding
# Outline: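 Binding of GST-tagged P. falciparum DNA-binding domains, expressed in E. coli and used at about 25 μg on average, was carried out for 1 h in 1× PBS containing 1% milk, 0.2 mg/ml BSA, 0.5% salmon testes DNA and 0.03% Triton X-100. The target was an Agilent 4 × 180k array of primer-extended double-stranded 36-bp intergenic genomic probes plus negative controls, read with Alexa488 anti-GST antibody at 488 nm. Binding intensity is the highest Masliner-normalised natural-log median intensity across replicate spots of either probe orientation.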
row,Sequence,gcPBM binding intensity (ln)
1,ATTGTCTTTTAATAGTGTACTTATTTTAAATATTGC [XGTACX_site8517],8.83 ± 0.45
2,TTTCTAATATATAAAGTGCAATACCATTCAGAGTTA,8.54 ± 0.45
3,ATATGGAAGAATTAAAGTACTTAAAAAAATGTCAGT [XGTACX_site6837],8.91 ± 0.45
4,TTTTATAGAGTGTATACATGCAATACCACATAAAAT [TGCATGCA_site476],8.79 ± 0.43
5,TATAATTTATAAGTAGTGCATTTCTTTTCATTTTTA,8.55 ± 0.48
6,AAGAAAATAAAATAAAATAAAATAAAATAAAAATAT [TGCATGCA_negctrl_site493],8.8 ± 0.49
7,AAAGAAGAAAAATATAGTACAGGGCACATGTCCTGT [XGTACX_site6293],8.62 ± 0.54
8,AAAAAAAAAAAAATTGCATGTAAATGAAATAATAAA [TGCATGCA_site116],8.54 ± 0.52
9,TTATTTTTATATTTCACACACATATACTTTTACATA [CACACA_site4097],9.24 ± 0.47
10,ATTTAAATTTAAAAAACACACATAATATGATATATA [CACACA_site1973],8.69 ± 0.47
11,TATTGTAGTCATGCACGTACAAAAGGAAAGTTAAAA [XGTACX_site4446],8.82 ± 0.42
12,AAATAAAATATTACATGTACATGTTCATAAAAAAAA [XGTACX_site1067],8.7 ± 0.51
13,ATAAATTAATGGAGAAATCTTATGAATTTATTTTAA [CACACA_negctrl_site1068],8.3 ± 0.52
14,AATAAAAAGGAACACACACACACACCGATATATATA [CACACA_site5895],10.08 ± 0.085
15,TACATACACAGACACACACACATATATATATATATA [CACACA_site3557],10.1 ± 0.19
16,TAAATATAAGTGTACATACACACTTTACAATCTCAT [CACACA_site3006],8.86 ± 0.45
17,AATATATACATATATACACACACATATATTATATAT [CACACA_site7980],9.43 ± 0.35
18,TTATACGATAATATGACACACAATACAAAAATGTAA [CACACA_site1918],8.96 ± 0.42
19,TGTTTCTAAAAATTTACACACAAAATATTTCTACAT [CACACA_site4098],8.98 ± 0.36
20,CCTATAAAACCATATACACACATATATATAAAAAAA [CACACA_site4013],9.11 ± 0.38
21,TGGGTATATATAAAAGGTACACAAAATGAAGATATA [XGTACX_site4994],8.88 ± 0.6
22,TAATTTCTTATGTATTGTACAAATAATATATTATAT [XGTACX_site1037],8.7 ± 0.44
23,TTTTCTGTGTTTTTGGGTACACACAAATAGCTTGTA [XGTACX_site8553],9.12 ± 0.37

row,Sequence,gcPBM binding intensity (ln)
1,TGATATTATATTGTGATGCACTTTAAAAATATAAAG [GTGCAC_site9509],8.39 ± 0.44
2,ATGGTTTAATTATATACACACTCGAAAATAACGACA [CACACA_site3258],8.74 ± 0.41
3,TTTTACAAATGTTTTACACACACATAATTGTATCAA [CACACA_site4166],9.19 ± 0.31
4,AAAAAAAGGATGTACGTATCATAATTTTATTTTATA [CACACA_negctrl_site1543],8.68 ± 0.59
5,CTTATTTTATTCGAATGTACATAATTGTTAGACATT [XGTACX_site8583],8.7 ± 0.38
6,AATAATAACAAATGAACACACATATAGATGAGCAAA [CACACA_site7076],9.26 ± 0.45
7,TATCTCATGCGCACAAAAATATATGCAAAGAGTATA [TGCATGCA_negctrl_site201],9.07 ± 0.21
8,CTTAAGTAAAATTAAAGTACATGGACAAAAAATATA [XGTACX_site7900],8.73 ± 0.42
9,ATATGTGTTAAAAATGCACACAAAAAAATATACATA [CACACA_site7988],9.26 ± 0.38
10,CAATTTTACTCATAAACACACATATATATGTTATTA [CACACA_site3152],8.86 ± 0.47
11,ATATAAACATATAATAGTACACTTCGATAATTTTAT [XGTACX_site3321],8.69 ± 0.51
12,GTACCATCAAAATAAATATATATATATATATATTTT [GTGCAC_negctrl_site646],8.89 ± 0.31
13,ATTTAACATATAAAATGTACATATATATATATATTT [XGTACX_site2525],8.86 ± 0.32
14,TCATAAATATAAAGTGTGCACTTGAATAATATGTAT,8.91 ± 0.3
15,AAAATAAAAAAAATAAATAAAAAAAATAATAATAAA [CACACA_negctrl_site563],8.51 ± 0.65
16,TAAATAAATCTGTGCTTGCACTTTTTTTGTTATTTT,8.59 ± 0.51
17,ACATGTAATATAATGTGTACATATACAAAGGTATAT [XGTACX_site4145],9.34 ± 0.59
18,ATAAAGTATATTATATGTACATATATATATTATATA [XGTACX_site1345],8.68 ± 0.4
19,AGATGAGAAATATATACACACAATAATACCTATTTA [CACACA_site876],9.1 ± 0.52
20,TTTCTTTTTTCTTCAGTGCATTAAAATTAACAAAAG,8.21 ± 0.38
21,TTTGTGTTGTATTTTTGTACATAAAATAAACTTAAA [XGTACX_site4637],8.33 ± 0.38
22,GAGCCCAAAAAATTAGGTACGTATAAAGAGGTATTT [XGTACX_site5348],8.8 ± 0.54
23,AGGAAAATTTTATTTGCACACATTATTACGTCTAAA [CACACA_site2337],9.01 ± 0.4

row,Sequence,gcPBM binding intensity (ln)
1,CATATATATATTGGAAGTACATATTTAATATTCATT [XGTACX_site3545],8.68 ± 0.44
2,TCTTTTTTCATATTTTCACACATGTCTTTATATTTA [CACACA_site6025],9.12 ± 0.53
3,ATTCCTTTATTATCACGTACTTATAAAATATAGTAT [XGTACX_site7498],8.93 ± 0.44
4,TTAAATAAAATAAAAACATGCACACTTTATTTTTTT [TGCATGCA_site719],8.68 ± 0.5
5,TTATATATATATTGTTCACACATAATATAAATATTT [CACACA_site5835],8.61 ± 0.52
6,ATAAACAGATAAAAGGGTACACACATATATACATGT [XGTACX_site452],9.35 ± 0.56
7,TTTTTCATTTAGCTTTTACACACTATATATTATTGA [CACACA_site7888],8.93 ± 0.44
8,TTTTAATAAATCATTTTCCTAATATTTATATTTGCT [TGCATGCA_negctrl_site232],8.51 ± 0.54
9,TATATTTTTATGTGTGTGCACAAAATAACAAAATAT [GTGCAC_site9596],9.28 ± 0.33
10,ATTATTTTTTTTGAAGTGCAATATTATTTTTAATCA,8.46 ± 0.45
11,GTTAAGTGGATATATACACACATATGCAATACATGA [CACACA_site7427],9.18 ± 0.35
12,CAATTCAATATATATACACACACACTATTAATAATT [CACACA_site9256],9.54 ± 0.25
13,ATGTGGATTTTATAATGTACATATGATATTATTTTG [XGTACX_site7930],8.9 ± 0.27
14,TATACTACCCAGAGCTGTACAAAATAATAATAAGTT [XGTACX_site1045],8.94 ± 0.35
15,ATGGTTATATTTGAAGTGCAAAAAAAAATATATGTA,8.73 ± 0.47
16,CAAACCCACCAACACACACACACAAAAATGATTAAA [CACACA_site2432],9.88 ± 0.3
17,TACTTTTTTATTTGGTGTACAAATAAAATCATAATG [XGTACX_site1802],8.62 ± 0.42
18,ATATATTTTGATTGCACACAGAATTTAAATCATGAT [CACACA_site2343],9.03 ± 0.26
19,GAAGATATATAATAATTCATAGTTTTTTAATTTAAA [TGCATGCA_negctrl_site295],8.23 ± 0.59
20,CTCTTTTCTTATAATACACACAGTAATATTTATATA [CACACA_site6824],8.82 ± 0.42
21,AATAAAAAAAATTTCTGTACATATATTTATTATATA [XGTACX_site1883],8.36 ± 0.42
22,CCTATCCAGACATATACACACATATCTATTTATATA [CACACA_site5001],9.04 ± 0.4
23,TATAAAAAATAATACACACACATGGCGACAAAATAA [CACACA_site2420],9.54 ± 0.29

row,Sequence,gcPBM binding intensity (ln)
1,TTTACTTTCCCAAGTTGTACTGCTTCTAAGCTTTTT [XGTACX_site2708],8.77 ± 0.48
2,AATGATAATATTTCCTTCTTTTTTACTTCTTTCTTT [CACACA_negctrl_site776],8.65 ± 0.57
3,AAAATGGTTTATAAATGTACATATATTATATATAAC [XGTACX_site7959],8.79 ± 0.42
4,AAAAAAAATTTCTTCTGTACGCATAAATTTTTATTA [XGTACX_site8721],8.37 ± 0.43
5,TATTTAATTTTTAAATGTACATATAAAATAATATAT [XGTACX_site2422],8.24 ± 0.41
6,TTTTTCAGAAAAGAAACACACATATATATATTTATA [CACACA_site2372],8.56 ± 0.43
7,CATATAAAATAATTCACACAAATATACAAATACCCA [CACACA_site5340],9.04 ± 0.36
8,CTTTATAAAATAAGAGTGCGTTATATTGAATTGTAT [GTGCAC_site9390],8.62 ± 0.39
9,ATATAAGATTTAAGAAGTACAATTATACAGTAGATC [XGTACX_site7501],8.85 ± 0.47
10,ATATAACATAGACACACACACATATAAATATATTAT [CACACA_site7865],9.67 ± 0.14
11,TTTTTATAACGTAATAAATAAAACGTCTATACTATA [XGTACX_negctrl_site176],8.61 ± 0.45
12,AAAAATATAATATAATGTACACAAAAAAAAAAATTC [XGTACX_site3657],8.83 ± 0.44
13,AATTAGACATAATATACACACATATATTATAGATAT [CACACA_site7297],8.99 ± 0.36
14,TAAAGATATTATTTTTGTACATATTGATATAATGAA [XGTACX_site6571],8.41 ± 0.4
15,TATATTATTATAATTTGTACATATCTAATTATATAT [XGTACX_site5342],8.78 ± 0.49
16,GAATAAATTAAAAATGCACACTTTGATGGGTACATT [CACACA_site5220],8.72 ± 0.42
17,ACGTTTTATAATTAATGTACAAATATTAAAATTGCA [XGTACX_site7869],8.57 ± 0.35
18,TATGAATGGTTAAGTACACACATATTAAGATATGTA [CACACA_site5852],8.86 ± 0.45
19,TCATATATTTATGTATGTACATATATATATAGATTA [XGTACX_site380],8.59 ± 0.3
20,TTATTTATTTTAAATTCACACATCGTGCTATTATAT [CACACA_site5003],9.04 ± 0.68
21,TATATTTGCAGTAATAATAATTATTATAAAAGATAA [XGTACX_negctrl_site547],8.53 ± 0.54
